Reference: US20250352659A1, “SELF-STABILIZING LINKER CONJUGATES” (priority 2023, published 2025)

What was measured:
[1] = ADC stability in pH 7.4 and 8.0 GSH buffer; type: physicochemical; conditions: for MS DAR: 10 mM GSH
Experimental: (§1) After the conjugation and hydrolysis steps described above (see “DAR8 antibody drug conjugate/conjugator-antibody conjugate preparation”), conjugator-antibody conjugates were incubated in formulation buffer (pH 5.5 20 mM histidine buffer) or glutathione (GSH) buffer (pH 7.4 or 8.0), and the solutions were left at 22 or 37° C. for 1˜168 h. Hydrolysis status was monitored via reduced LCMS. Results are presented in Table 6, Table 7, and FIGS. 2A-23B.
(§2) Results of stability assessments of ADCs in GSH solution or formulation buffer are presented in Table 8 and Table 9, respectively, and FIGS. 24A-37B.

[2] = ADC stability in formulation buffer (20 mM histidine buffer); type: physicochemical; conditions: for MS DAR-T = 0 h / MS DAR-T = 168 h: pH 5.5, 22 °C
Experimental: as §1, §2

[3] = ADC hydrophobicity evaluation by HIC (Method 1); type: physicochemical; conditions: later retention time = higher hydrophobic property
Experimental: HIC method: HPLC analysis was carried out under the following measurement conditions:
• HPLC system: Waters ACQUITY ARC HPLC System • Detector: measurement wavelength: 280 nm • Column: Tosoh Bioscience 4.6 μm ID×3.5 cm, 2.5 μm butyl-nonporous resin column • Column temperature: 25° C. • Mobile phase A: 1.5 M ammonium sulfate, 50 mM phosphate buffer, pH 7.0 • Mobile phase B: 50 mM phosphate buffer, 25% (V/V) isopropanol, pH 7.0 • Gradient program: 0% B-0% B (0 min-2 min), 0% B-100% B (2 min-15 min), 100% B-100% B (15 min-16 min), 100% B-0% B (16 min-17 min), 0% B-0% B (17 min-20 min) • Injected sample amount: 20 μg
ADC hydrophobicity evaluation: An ADC with a higher hydrophobic property would appear with a later retention time from HIC (hydrophobicity interaction column) chromatography. Results are presented in Table 4 using the DAR8 peak as a reference.

H1650 cells = assay: ADCs in vivo efficacy study, H1650 model of lung cancer; set-up: species or system BALB/c Nude mice; conditions: for anti-tumor activity compared with non-RO conjugator ADC (ADC4-B): H1650 human lung cancer model (FIG. 44); for anti-tumor activity: H1650 human lung cancer model, i.v., 1 or 3 mg/kg QW*2 (FIG. 44)
Experimental: Female BALB/c Nude mice were subcutaneously implanted with 3× 10^6 H1650 cells per 200 μL PBS/matrigel in the right flank. After inoculation, tumor volumes were determined twice weekly in two dimensions using a caliper and were expressed in mm^3 using the formula V=0.5 (a×b^2) where a and b are the long and short diameters of the tumor, respectively. […] Partial regression (PR) was defined as tumor volume smaller than 50% of the starting tumor volume on the first day of dosing in three consecutive measurements and complete regression (CR) was defined as tumor volume less than 14 mm^3 in three consecutive measurements. Data are presented as mean tumor volume±standard error of the mean (SEM). Tumor growth inhibition (TGI) is calculated using the following formula: […]

B1: ADC4-16o: Ifinatamab ADC of Table 4, open-ring (RO) conjugator (conjugate)
heavy: QVQLVQSGAEVKKPGSSVKVSCKASGYTFTNYVMHWVRQAPGQGLEWMGYINPYNDDVKYNEKFKGRVTITADESTSTAYMELSSLRSEDTAVYYCARWGYYGSPLYYFDYWGQGTLVTVSSASTKGPSVFPLAPSSKSTSGGTAALGCLVKDYFPEPVTVSWNSGALTSGVHTFPAVLQSSGLYSLSSVVTVPSSSLGTQTYICNVNHKPSNTKVDKRV[human IgG1 Fc skipped]
light: EIVLTQSPATLSLSPGERATLSCRASSRLIYMHWYQQKPGQAPRPLIYATSNLASGIPARFSGSGSGTDFTLTISSLEPEDFAVYYCQQWNSNPPTFGQGTKVEIKRTVAAPSVFIFPPSDEQLKSGTASVVCLLNNFYPREAKVQWKVDNALQSGNSQESVTEQDSKDSTYSLSSTLTLSKADYEKHKVYACEVTHQGLSSPVTKSFNRGEC
MS DAR ([1]; 96 h, pH 7.4, 22 °C): 8.14 | MS DAR ([1]; 96 h, pH 7.4, 37 °C): 8.20 | MS DAR ([1]; 96 h, pH 8.0, 22 °C): 8.14 | deconjugation events ([1]; incubation in GSH solutions (pH 7.4 or 8.0 for 18 hours)): no deconjugation events | MS DAR-T = 0 h [2]: 8.06 | deconjugation events ([2]; storage in formulation buffer for one week): no deconjugation events | MS DAR-T = 168 h [2]: 8.04 | DAR8 Species HIC Retention Time (min) (Method 1) [3]: 9.795 min | anti-tumor activity compared with non-RO conjugator ADC (ADC4-B) (H1650 cells): superior | anti-tumor activity (H1650 cells): potent anti-tumor activities

B2: ADC4-8o: Ifinatamab ADC of Table 4, ring-opened maleimide (conjugate)
heavy: QVQLVQSGAEVKKPGSSVKVSCKASGYTFTNYVMHWVRQAPGQGLEWMGYINPYNDDVKYNEKFKGRVTITADESTSTAYMELSSLRSEDTAVYYCARWGYYGSPLYYFDYWGQGTLVTVSSASTKGPSVFPLAPSSKSTSGGTAALGCLVKDYFPEPVTVSWNSGALTSGVHTFPAVLQSSGLYSLSSVVTVPSSSLGTQTYICNVNHKPSNTKVDKRV[human IgG1 Fc skipped]
light: EIVLTQSPATLSLSPGERATLSCRASSRLIYMHWYQQKPGQAPRPLIYATSNLASGIPARFSGSGSGTDFTLTISSLEPEDFAVYYCQQWNSNPPTFGQGTKVEIKRTVAAPSVFIFPPSDEQLKSGTASVVCLLNNFYPREAKVQWKVDNALQSGNSQESVTEQDSKDSTYSLSSTLTLSKADYEKHKVYACEVTHQGLSSPVTKSFNRGEC
DAR8 Species HIC Retention Time (min) (Method 1) [3]: 10.444 min

B3: ADC4-9o: Ifinatamab ADC of Table 4, ring-opened maleimide (conjugate)
heavy: QVQLVQSGAEVKKPGSSVKVSCKASGYTFTNYVMHWVRQAPGQGLEWMGYINPYNDDVKYNEKFKGRVTITADESTSTAYMELSSLRSEDTAVYYCARWGYYGSPLYYFDYWGQGTLVTVSSASTKGPSVFPLAPSSKSTSGGTAALGCLVKDYFPEPVTVSWNSGALTSGVHTFPAVLQSSGLYSLSSVVTVPSSSLGTQTYICNVNHKPSNTKVDKRV[human IgG1 Fc skipped]
light: EIVLTQSPATLSLSPGERATLSCRASSRLIYMHWYQQKPGQAPRPLIYATSNLASGIPARFSGSGSGTDFTLTISSLEPEDFAVYYCQQWNSNPPTFGQGTKVEIKRTVAAPSVFIFPPSDEQLKSGTASVVCLLNNFYPREAKVQWKVDNALQSGNSQESVTEQDSKDSTYSLSSTLTLSKADYEKHKVYACEVTHQGLSSPVTKSFNRGEC
DAR8 Species HIC Retention Time (min) (Method 1) [3]: 10.883 min

B4: ADC4-11o: Ifinatamab ADC of Table 4, open-ring (RO) conjugator (conjugate)
heavy: QVQLVQSGAEVKKPGSSVKVSCKASGYTFTNYVMHWVRQAPGQGLEWMGYINPYNDDVKYNEKFKGRVTITADESTSTAYMELSSLRSEDTAVYYCARWGYYGSPLYYFDYWGQGTLVTVSSASTKGPSVFPLAPSSKSTSGGTAALGCLVKDYFPEPVTVSWNSGALTSGVHTFPAVLQSSGLYSLSSVVTVPSSSLGTQTYICNVNHKPSNTKVDKRV[human IgG1 Fc skipped]
light: EIVLTQSPATLSLSPGERATLSCRASSRLIYMHWYQQKPGQAPRPLIYATSNLASGIPARFSGSGSGTDFTLTISSLEPEDFAVYYCQQWNSNPPTFGQGTKVEIKRTVAAPSVFIFPPSDEQLKSGTASVVCLLNNFYPREAKVQWKVDNALQSGNSQESVTEQDSKDSTYSLSSTLTLSKADYEKHKVYACEVTHQGLSSPVTKSFNRGEC
MS DAR ([1]; 18 h, pH 7.4, 22 °C): 8.34 | MS DAR ([1]; 18 h, pH 7.4, 37 °C): 8.48 | MS DAR ([1]; 18 h, pH 8.0, 22 °C): 8.34 | MS DAR-T = 0 h [2]: 8.12 | MS DAR-T = 168 h [2]: 8.18 | DAR8 Species HIC Retention Time (min) (Method 1) [3]: 9.948 min

B5: ADC4-10o: Ifinatamab ADC of Table 4, open-ring (RO) conjugator (conjugate)
heavy: QVQLVQSGAEVKKPGSSVKVSCKASGYTFTNYVMHWVRQAPGQGLEWMGYINPYNDDVKYNEKFKGRVTITADESTSTAYMELSSLRSEDTAVYYCARWGYYGSPLYYFDYWGQGTLVTVSSASTKGPSVFPLAPSSKSTSGGTAALGCLVKDYFPEPVTVSWNSGALTSGVHTFPAVLQSSGLYSLSSVVTVPSSSLGTQTYICNVNHKPSNTKVDKRV[human IgG1 Fc skipped]
light: EIVLTQSPATLSLSPGERATLSCRASSRLIYMHWYQQKPGQAPRPLIYATSNLASGIPARFSGSGSGTDFTLTISSLEPEDFAVYYCQQWNSNPPTFGQGTKVEIKRTVAAPSVFIFPPSDEQLKSGTASVVCLLNNFYPREAKVQWKVDNALQSGNSQESVTEQDSKDSTYSLSSTLTLSKADYEKHKVYACEVTHQGLSSPVTKSFNRGEC
MS DAR ([1]; 18 h, pH 7.4, 22 °C): 8.04 | MS DAR ([1]; 18 h, pH 7.4, 37 °C): 8.02 | MS DAR ([1]; 18 h, pH 8.0, 22 °C): 8.04 | MS DAR-T = 0 h [2]: 8.02 | MS DAR-T = 168 h [2]: 8.08 | DAR8 Species HIC Retention Time (min) (Method 1) [3]: 9.898 min | anti-tumor activity compared with non-RO conjugator ADC (ADC4-B) (H1650 cells): superior | anti-tumor activity (H1650 cells): potent anti-tumor activities

B6: ADC4-B: Ifinatamab (anti-B7H3) ADC with a non-RO conjugator, comparator (conjugate)
heavy: QVQLVQSGAEVKKPGSSVKVSCKASGYTFTNYVMHWVRQAPGQGLEWMGYINPYNDDVKYNEKFKGRVTITADESTSTAYMELSSLRSEDTAVYYCARWGYYGSPLYYFDYWGQGTLVTVSSASTKGPSVFPLAPSSKSTSGGTAALGCLVKDYFPEPVTVSWNSGALTSGVHTFPAVLQSSGLYSLSSVVTVPSSSLGTQTYICNVNHKPSNTKVDKRV[human IgG1 Fc skipped]
light: EIVLTQSPATLSLSPGERATLSCRASSRLIYMHWYQQKPGQAPRPLIYATSNLASGIPARFSGSGSGTDFTLTISSLEPEDFAVYYCQQWNSNPPTFGQGTKVEIKRTVAAPSVFIFPPSDEQLKSGTASVVCLLNNFYPREAKVQWKVDNALQSGNSQESVTEQDSKDSTYSLSSTLTLSKADYEKHKVYACEVTHQGLSSPVTKSFNRGEC
DAR8 Species HIC Retention Time (min) (Method 1) [3]: 10.860 min

B7: ADC4-13o: Ifinatamab ADC of Table 4, open-ring (RO) conjugator (conjugate)
heavy: QVQLVQSGAEVKKPGSSVKVSCKASGYTFTNYVMHWVRQAPGQGLEWMGYINPYNDDVKYNEKFKGRVTITADESTSTAYMELSSLRSEDTAVYYCARWGYYGSPLYYFDYWGQGTLVTVSSASTKGPSVFPLAPSSKSTSGGTAALGCLVKDYFPEPVTVSWNSGALTSGVHTFPAVLQSSGLYSLSSVVTVPSSSLGTQTYICNVNHKPSNTKVDKRV[human IgG1 Fc skipped]
light: EIVLTQSPATLSLSPGERATLSCRASSRLIYMHWYQQKPGQAPRPLIYATSNLASGIPARFSGSGSGTDFTLTISSLEPEDFAVYYCQQWNSNPPTFGQGTKVEIKRTVAAPSVFIFPPSDEQLKSGTASVVCLLNNFYPREAKVQWKVDNALQSGNSQESVTEQDSKDSTYSLSSTLTLSKADYEKHKVYACEVTHQGLSSPVTKSFNRGEC
MS DAR ([1]; 72 h, pH 7.4, 22 °C): 7.94 | MS DAR ([1]; 72 h, pH 7.4, 37 °C): 7.96 | MS DAR ([1]; 72 h, pH 8.0, 22 °C): 7.94 | MS DAR-T = 0 h [2]: 8.00 | MS DAR-T = 168 h [2]: 8.02 | DAR8 Species HIC Retention Time (min) (Method 1) [3]: 9.877 min
